Measurements taken from PubChem BioAssay AID1240 (Sanford-Burnham Center for Chemical Genomics, 2008).
About 800 (1.6%) of roughly 50,000 compounds showed an effect of 50% or more. The list shows a part of the results.

molecular target: Bcl-2-like protein 10 (Homo sapiens) (UniProt Q9HD36); assay: Phenotype converters, Bcl-B/TR3 peptide binding displacement, primary biochemical FP (AID 1240); conditions: GST-Bcl-B / FITC-TR3 peptide fluorescence polarization; stronger effect = higher value; compound at 3.75 mg/L;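 also: 0% = Bcl-B with tracer peptide and DMSO and 100% = tracer peptide lacking Bcl-B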
UniProt Q9HD36, sequence (Q9HD36 whole entry, looked up): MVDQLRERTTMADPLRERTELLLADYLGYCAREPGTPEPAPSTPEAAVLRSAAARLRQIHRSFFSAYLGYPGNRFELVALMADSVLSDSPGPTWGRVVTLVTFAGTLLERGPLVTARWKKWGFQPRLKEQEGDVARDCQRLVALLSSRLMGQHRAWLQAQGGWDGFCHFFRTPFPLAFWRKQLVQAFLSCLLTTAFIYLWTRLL

Row | Compound | displacement [%]
1 | O=C(Nc1ccc(N2CCCCC2)c(Cl)c1)c1ccc(-c2ccc(F)cc2)o1 | -0.6
2 | C=CCNc1nc(-c2ccc(F)cc2F)cs1 | -3.1
3 | CCN(CC)c1ccc(C(=O)Nc2ccc(F)c(Cl)c2)cc1 | 0.1
4 | N#Cc1cc(C#N)c(SCC(=O)c2ccccc2)nc1N | 37.4
5 | COc1ccc(-n2c(C)ccc2C)c(N)c1 | 44.7
6 | COc1ccc(C(=O)NCC2CCCO2)c(OC)c1 (configuration not stated) | 18.2
7 | Cc1ccc(NC(=O)C2CC2(c2ccccc2)c2ccccc2)c(C)c1 (configuration not stated) | 2.3
8 | CC(C)c1ccc(CNC(=O)CSCC(=O)Nc2ccc3ccccc3c2)cc1 | 14.2
9 | CCCCNC(=O)C(CCC(=O)OCc1ccccc1)NC(=O)Cc1ccccc1 (configuration not stated) | 14.4
10 | Cc1cc2c(cc1C)NC(c1ccc(Cl)c(F)c1)C1=C(CC(C)(C)CC1=O)N2 (configuration not stated) | -1.9
11 | CCN(CC)c1ccc(C=Nc2cccc([N+](=O)[O-])c2C)c(O)c1 | 12.9
12 | Cc1ccc(-c2nc3cc(Cl)ccc3o2)cc1NC(=O)COc1ccccc1[N+](=O)[O-] | 40.2
13 | O=C(Nc1ccccc1C(=O)c1ccccc1)c1ccc([N+](=O)[O-])cc1 | -11
14 | C1CN(CC23CC4CCC(CC(C4)C2)C3)CCO1 | -3.6
15 | O=C(O)c1ccc(NC(=O)c2ccc(Cl)c(S(=O)(=O)N3CCOCC3)c2)cc1 | -11.9
16 | COCCNC(=O)c1ccc(CN(c2ccccc2)S(C)(=O)=O)cc1 | 15.7
17 | CCN(CC)c1ccc(NC(=O)c2ccc(C(C)C)cc2)cc1 | 5.1
18 | O=S(=O)(NC1C2CC3CC(C2)CC1C3)c1ccc2ccccc2c1 (configuration not stated) | 0.3
19 | CS(=O)(=O)N(CC(=O)N1CCOCC1)c1cccc(C(F)(F)F)c1 | 2.8
20 | COc1ccc(NC(=O)c2ccccc2NC(=O)c2ccccc2)cc1 | -6
21 | Cc1oc2cc(OCc3ccc([N+](=O)[O-])cc3)ccc2c(=O)c1-c1nc2ccccc2n1C | 5.4
22 | COc1ccc(O)c(C(=O)CC(=O)c2ccc(C(C)(C)C)cc2)c1 | -22.9

Row | Compound | displacement [%]
23 | O=C(Cc1ccccc1)Nc1ccncc1 | 5.2
24 | COc1ccc(NC(=O)c2ccccc2C(F)(F)F)cc1 | -7.7
25 | O=C(N/N=C/c1ccccc1O)c1cnccn1 | -20.4
26 | Nc1ccc(Br)cc1/C(=N/O)c1ccccc1 | -0.7
27 | COc1cc(OC)c(OC)cc1/C=N/NC(=O)CCC1C(=O)NN=C1C (configuration not stated) | 0.8
28 | Clc1cccc(CNCc2ccc3c(c2)OCO3)c1 | -3.8
29 | COc1ccccc1NC(=O)c1cc2ccccc2o1 | 0.2
30 | COc1cc(OC)cc(C(=O)Nc2ccc(Br)c(C)c2)c1 | 2.6
31 | O=C(NNc1nc(-c2ccccc2)cs1)c1cccc(Br)c1 | 11
32 | CCOC(=O)c1ccc(NC(=O)CC2SC(=O)NC2=O)cc1 (configuration not stated) | 10.5
33 | COCCNC(=O)/C(=C\c1ccc(OC)cc1)NC(=O)c1ccc(C)cc1 | 9
34 | COc1c(Cl)ccc(Cl)c1C(=O)Nc1c(C)cccc1C(C)C | 5.2
35 | O=C1N/C(=N/N=C/c2ccccc2O)SC1Cc1ccccc1 (configuration not stated) | 1.4
36 | COc1ccc(C(=O)N2CCN(C(c3ccccc3)c3ccccc3)CC2)cc1OC | 5.4
37 | O=C(/C=C(\O)c1ccccc1)c1ccc([N+](=O)[O-])cc1 | -0.6
38 | Cc1ccccc1N1C(=O)NC(=O)/C(=C/c2cn(CC(=O)Nc3ccccc3)c3ccccc23)C1=O | 53.6
39 | Cc1ccc(C(C)C)c(OCC(=O)Nc2ccc(OC(F)(F)F)cc2)c1 | 3.7
40 | O=C(Nc1cccnc1)c1cnn2c1NC(c1cccs1)CC2C(F)(F)F (configuration not stated) | 6.8
41 | Cc1ccc(N(CC(=O)NC(C)c2ccccc2)S(C)(=O)=O)cc1Cl (configuration not stated) | -1.3
42 | Cc1cc(C)cc(N2C(=O)/C(=C/c3ccc(Oc4ccc([N+](=O)[O-])cn4)cc3)C(=O)NC2=S)c1 | 12.1
43 | C/C(CC(=O)NCc1ccco1)=N\NC(=O)Cc1cccs1 | -9.5
44 | COc1cc(/C=N/N2C(=O)CSC2=S)ccc1OCCOc1ccc(C)c(C)c1 | 45

Row | Compound | displacement [%]
45 | O=C(Nc1ccc(S(=O)(=O)N2CCc3ccccc32)cc1)c1ccc(-c2ccccc2)cc1 | 89.5
46 | CSCCOC(=O)C1=C(C)NC(=O)NC1c1cccc2ccccc12 (configuration not stated) | 5.3
47 | CC1(C)C=C(/C=C/c2ccccc2)NC(=O)N1 | 7.5
48 | CC(C)(C)NC(=O)c1ccc(N2C(=O)c3ccc([N+](=O)[O-])cc3C2=O)cc1 | -0.1
49 | COc1ccc(/C=C/C(=O)Nc2ccc(Oc3ccccc3)cc2)cc1OC | -8
50 | COc1ccc(NC(=O)C2CC(=O)N(c3ccc(F)cc3)C2)c(OC)c1 (configuration not stated) | 11.7
51 | COc1cccc(C(=O)NCCc2nc3ccccc3[nH]2)c1 | -7.2
52 | CC(C)c1ccc(-c2csc(NC(=O)C3C4CCC(C4)C3C(=O)O)n2)cc1 (configuration not stated) | 7.6
53 | COc1cccc(/C=N\n2c(C)nnc2C)c1O | 10.1
54 | CN(C)c1ccc(C(=S)N2CCN(c3ccccc3)CC2)cc1 | 15.6
55 | CS(=O)(=O)N1CCN(Cc2c[nH]c3ccccc23)CC1 | 20.1
56 | COc1ccc(CCNc2cc(N3CCN(S(C)(=O)=O)CC3)ccc2[N+](=O)[O-])cc1OC | -5.5
57 | O=C1CSC(=O)N1CNc1cccc2ccccc12 | 12.9
58 | CC(Oc1ccc(Cl)cc1Cl)C(=O)N1CCN(C/C=C/c2ccccc2)CC1 (configuration not stated) | -1.6
59 | CC(=O)O/N=C1\CCCc2c1[nH]c1ccccc21 | -1.4
60 | COC(=O)c1ccc(C2C(C(=O)OC(C)C)=C(C)N=C3SCCC(=O)N32)cc1 (configuration not stated) | 11.3
61 | c1ccc2cc(OCCOCCOc3ncnc4ccccc34)ccc2c1 | 16.4
62 | Cc1ccc2oc(-c3cccc(N)c3C)nc2c1 | 12.1
63 | O=C(/C=C/c1ccc2c(c1)OCO2)N1CCCC1 | -2.3
64 | CCc1cc2c(=O)c(-c3nc4ccccc4[nH]3)coc2c(CN(CC)CC)c1O | -12
65 | O=C(Nc1cc([N+](=O)[O-])ccc1Cl)c1cc(-c2cccs2)nc2ccccc12 | 7.8
66 | COc1ccc(COC(=O)C2=C(C)NC3=C(C(=O)CCC3)C2c2cccc3ccccc23)cc1 (configuration not stated) | 10.9

Row | Compound | displacement [%]
67 | Cc1ccc(NC(=O)C(=O)NCCN2CCN(C(=O)c3ccco3)CC2)cc1 | 7.1
68 | Cc1noc(NS(=O)(=O)c2ccc(NC(=O)CCCOc3ccc(Cl)cc3Cl)cc2)c1C | -6.3
69 | Cc1ccccc1N1C(=O)C(O)C(O)C1=O (configuration not stated) | 21.1
70 | CCCN(CCC)CCCNC(=O)/C=N\O | -3.4
71 | Cn1c(=O)[nH]c(=O)c2c1nc1n2CC(COc2ccccc2)O1 (configuration not stated) | -3.5
72 | C=CCOc1ccc2c(c1)C(=NO)c1cc(OCC=C)ccc1-2 | 10.3
73 | COc1cc(NC(=O)c2ccc(Cl)cc2Cl)ccc1NC(=O)c1ccco1 | 8.5
74 | CCc1ccc(N2C(=O)NC(=O)/C(=C\c3ccc(OCC(=O)O)c(Br)c3)C2=O)cc1 | -16.2
75 | COc1ccc(N(CC(=O)NCCc2ccccc2)S(C)(=O)=O)cc1Cl | -4.3
76 | Cc1cccc(NC(=O)Nc2c(C)n(C)n(-c3ccccc3)c2=O)c1 | -6.6
77 | O=C(c1nn2c(c1Br)NC(c1cccs1)CC2C(F)(F)F)N1CCOCC1 (configuration not stated) | 6.2
78 | Cc1ccc(-n2nc3cc(C)c(NC(=O)c4ccccc4Br)cc3n2)cc1 | -10.4
79 | Cc1cccc(C(=O)NNC(=O)c2ccc(-c3ccccc3)cc2)c1 | 9.4
80 | CCOC(=O)c1ccccc1NC(=O)C1COc2ccccc2O1 (configuration not stated) | -10.1
81 | COc1cc(/C=C2/SC(=S)NC2=O)ccc1OC(=O)c1ccc([N+](=O)[O-])cc1 | 12.1
82 | COc1ccc(N2C(=O)NC(=O)/C(=C/c3ccc(-c4ccc([N+](=O)[O-])cc4C)o3)C2=O)cc1 | 13.6
83 | O=C(NCCc1ccccc1)c1ccc(C#Cc2ccccc2)cc1 | -8.7
84 | O=C(Nc1cc(Cl)cc(Cl)c1)c1cc(I)ccc1Cl | 2.3
85 | O=c1cc(-c2ccc([N+](=O)[O-])cc2)nc2cc(-c3ccc(F)cc3)[nH]n12 | 7.5
86 | Cc1[nH]c2ccccc2c1/C=C/c1nc2ccccc2c(=O)n1-c1cccc([N+](=O)[O-])c1 | 1.9
87 | CC1=C(C(=O)OCc2ccccc2)C(c2ccc(C(F)(F)F)cc2)C2=C(CCCC2=O)N1 (configuration not stated) | -5.3
88 | COc1ccc(C2CC(=O)C3=C(C2)Nc2ccccc2NC3c2ccc(NC(C)=O)cc2)cc1 (configuration not stated) | 6.8

Row | Compound | displacement [%]
89 | O=C1CC(N2CCN(c3ccccc3Cl)CC2)C(=O)N1c1cccc(Cl)c1 (configuration not stated) | 14.4
90 | COc1ccc(/C=C/C(=O)Nc2ccc(OC(F)(F)F)cc2)cc1 | 2.6
91 | CC(=O)c1cccc(NC(=O)CC2S\C(=N/N=C/C=C/c3ccccc3)NC2=O)c1 (configuration not stated) | 0.3
92 | CCN(CC)c1ccc(/C=C2\C(=O)NC(=O)N(c3ccccc3OC)C2=O)cc1 | 0.3
93 | O=C(Nc1cc(Cl)cc(Cl)c1)c1ccc2c(c1)OCCO2 | 12.3
94 | Cc1ccc(OCCCn2ccnc2)cc1 | -4.6
95 | CCCC(=O)NC(c1ccc(Cl)cc1)c1ccc2cccnc2c1O (configuration not stated) | 9
96 | COc1cc(OC)c(OC)cc1/C=N/N=C(\N)c1nonc1N | 2.3
97 | CS(=O)(=O)N(CC(=O)Nc1ccc(Cl)c(Cl)c1)c1ccc(Cl)cc1 | -0.1
98 | CC1=C(C)CC2C(=O)N(c3ccc(-c4ccc([N+](=O)[O-])cc4)cc3)C(=O)C2C1 (configuration not stated) | 20.7
99 | NC1=NC(=O)/C(=C/c2ccccc2OCc2cccc3ccccc23)S1 | 14.8
100 | Cc1ccc2c(c1)c1c3n2CCN(CC(O)CNCN2CCCCCC2)C3CCC1 (configuration not stated) | -4.4
101 | O=C(NCCN1CCN(Cc2ccccc2Cl)CC1)C(=O)Nc1ccc(F)cc1 | 2.2
102 | Cc1ccc(OCCOCCOc2ccc(Cl)cc2/C=N\n2cnnc2)cc1 | -24.8
103 | COc1cc(OC)cc(C(=O)N2CCN(C3CCCCCC3)CC2)c1 | -9
104 | COc1cc(/C=C2\C(=O)N(c3ccc(S(N)(=O)=O)cc3)N=C2C)cc(Cl)c1O | 9
105 | CCOC(=O)c1ccc(NC(=O)Cc2ccccc2OC)cc1 | -12.8
106 | O=C(Nc1ccc(S(=O)(=O)NC(=O)C2CCCCC2)cc1)c1ccccc1Cl | -3.7
107 | COc1ccccc1N(S(=O)(=O)c1ccccc1)S(=O)(=O)c1ccccc1 | -3.3
